The BET-seq Pho4 binding data (Le et al. 2018)
The list shows a part of the results. The energies were worked out here from pooled read counts, against the library average; single values are noisy.

The sequences below were run against T1, Pho4 (S. cerevisiae) (UniProt P07270) (assay: relative binding free energy (BET-seq); higher = weaker binding). Conditions: reference: library average.
T1 sequence: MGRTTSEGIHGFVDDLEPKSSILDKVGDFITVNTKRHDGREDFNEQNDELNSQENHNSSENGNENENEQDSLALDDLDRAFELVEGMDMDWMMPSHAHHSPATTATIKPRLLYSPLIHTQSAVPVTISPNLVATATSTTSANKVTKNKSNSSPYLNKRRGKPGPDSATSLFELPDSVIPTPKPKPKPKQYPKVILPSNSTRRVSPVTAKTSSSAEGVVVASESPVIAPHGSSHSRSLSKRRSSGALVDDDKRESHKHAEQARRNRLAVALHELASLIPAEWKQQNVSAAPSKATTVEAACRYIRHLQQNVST

Sequence	relative binding free energy [kcal/mol]
TGGCACACGTGGAAGG	0.17
AATTTCACGTGCATGT	0.13
GTTGTCACGTGTAAAA	0.3
TCAAGCACGTGTAGTT	-0.08
TTTGACACGTGGATAC	0.08
TTCTGCACGTGTCTGT	0.06
GGAAACACGTGGGTCT	-0.01
ATTTACACGTGGGGCT	-0.08
CGAGACACGTGAGGTT	0.25
GTGTCCACGTGGCGGA	0.07
TGAATCACGTGGCTAG	0.22
TATTGCACGTGAGGGT	0.09
TCTTTCACGTGTGGCA	0.32
GGTGGCACGTGGGTTT	-0.06
GAGTGCACGTGGTCGT	-0.13
TGGGACACGTGTCCGT	0.14
ATTTACACGTGTTGGA	0.1
ATTCTCACGTGGTGCG	0.23
GGGCGCACGTGAGTGC	0.13
TTTGGCACGTGGATTA	-0.09
GCTTTCACGTGGGTGC	0.16
AAGTACACGTGAGTTA	0.29
TGGCTCACGTGTGCGT	0.25
GCGATCACGTGAGAGT	0.45
GGTCGCACGTGTGAGC	0.24
GTGGCCACGTGGTGAG	-0.01

Sequence	relative binding free energy [kcal/mol]
GCGGGCACGTGGCTGG	-0.1
CGAGCCACGTGGGTGT	-0.23
ATAGTCACGTGGGGCT	-0.07
GTTATCACGTGGGTCA	0.17
TTGATCACGTGTCGGT	0.15
GGCGGCACGTGTGCGG	-0.14
ACTGTCACGTGGGTCA	0
GCAATCACGTGTTGGG	0.21
TGGAACACGTGTATGA	0.06
GGTGCCACGTGATGGC	0.09
ATGTACACGTGAGTGG	0.22
AAGGGCACGTGTTTGT	-0.16
AGTTTCACGTGGGTCT	0.09
TGGCTCACGTGTGGGC	0.3
AGTAACACGTGGTTTC	-0.01
GGTCACACGTGTTTTA	0.19
GGGGACACGTGAGATT	0.27
GGTAACACGTGGCGTG	-0.01
GGTATCACGTGTCGAT	0.22
GGCTGCACGTGTGTGC	-0.05
GTACGCACGTGCGTGG	-0.16
GGTGACACGTGTGGGC	0.11
CTGGGCACGTGGGCCA	-0.13
TTCGGCACGTGGATGC	-0.01
AGGGTCACGTGAAGTG	0.3
TATTGCACGTGGTATC	-0.07

Sequence	relative binding free energy [kcal/mol]
GGGGTCACGTGCTGCA	0.1
GGGTGCACGTGGCTCG	-0.05
ATTTACACGTGAGGTC	0.39
TGTTACACGTGGAGCT	0.15
CGGTGCACGTGTTTGC	-0.01
GATTGCACGTGGGAAG	0.05
GGGTACACGTGAACGG	0.38
GGGCACACGTGAGGTT	0.32
TTTCGCACGTGGAGTG	-0.13
GAGTTCACGTGAATGA	0.52
GCTGACACGTGGTGGG	0.08
TAAGGCACGTGTGTAC	-0.07
ATAGTCACGTGTAGTT	-0.05
AAGTTCACGTGATATG	0.3
GGAATCACGTGGGTAT	0.04
AAAGTCACGTGTTGTA	0.1
TTGTCCACGTGGTCGT	-0.2
GTATGCACGTGGTTTT	-0.03
GTTATCACGTGAGCTT	0.39
GTGGCCACGTGTTTGA	-0.17
GAGGTCACGTGGTCGA	0.08
TAAGGCACGTGGGGCA	-0.24
GGCATCACGTGTTTGG	0.14
TCATGCACGTGGCGGG	-0.14
TTGATCACGTGTAGTT	0.2
TGCAACACGTGGGATG	-0.06

Sequence	relative binding free energy [kcal/mol]
TATGACACGTGATAGG	0.11
GTTCGCACGTGGTGAT	-0.08
GGCTGCACGTGAAGTG	0.36
TTTATCACGTGTTAGC	0.13
GGGTACACGTGATTTT	0.21
TATTACACGTGGGGTT	0.02
TTCGGCACGTGTGTAC	0.01
GGGGGCACGTGGGATC	-0.02
AGAAGCACGTGTTTAG	-0.09
TTTTACACGTGTGGGG	0.21
GAGGCCACGTGGTTGC	-0.03
CGTTTCACGTGATGTC	0.32
CTGGTCACGTGTAGCT	0.2
GTGGGCACGTGTGCTT	0.03
TGATGCACGTGTGAGC	0.11
GGGCTCACGTGAGGTA	0.31
CTAGTCACGTGTTAAT	0.01
GCATGCACGTGTTGGG	0.04
TTATACACGTGTTGGG	-0.01
GCTATCACGTGTAGTT	0.15
TGTTGCACGTGGCGCA	-0.11
ATTAGCACGTGAGTTC	0.15
TTCTACACGTGGTTTG	0.11
ATAGGCACGTGGCAGG	-0.27
GCGGGCACGTGAAAGG	0.15
TTTTCCACGTGGTACG	0.07

Sequence	relative binding free energy [kcal/mol]
ATTGGCACGTGCTTTA	-0.19
TTATGCACGTGTTTCG	-0.02
ACGTACACGTGTTTGG	-0.07
TATTTCACGTGGACTG	0.27
ACGTGCACGTGTGGGG	-0.05
ATAAGCACGTGATTCT	0.17
ATTGGCACGTGAGGCT	0.19
GTATACACGTGAATTT	0.38
CGTCACACGTGGGGGT	-0.11
TTTGTCACGTGAACAT	0.28
CTTAGCACGTGAAGTG	0.1
CCTGTCACGTGGATGG	0.03
CTTGGCACGTGAGAGT	-0.07
TAGGTCACGTGTCAGT	0.05
GTTTACACGTGAAGGA	0.31
ACGGGCACGTGCAGTG	-0.07
TTTGCCACGTGAATTT	0.25
ATTTACACGTGTTTAA	0.05
TTCTTCACGTGTTAGG	0.36
GTTAACACGTGTGGTG	0.03
GTTGGCACGTGTTATA	-0.14
GAGTGCACGTGTGTTC	0.04
GTGTTCACGTGGTATT	0.34
TACGGCACGTGGTGTC	-0.22
AGTTGCACGTGATAGG	0.18
GAGGACACGTGAGGTG	0.23

Sequence	relative binding free energy [kcal/mol]
CGTGGCACGTGAATTA	0.18
TAGATCACGTGGTGGT	0.08
CGCGCCACGTGGTGGG	-0.26
ATGAGCACGTGGGTGG	-0.22
AGGCGCACGTGAAGGG	0.18
TTATCCACGTGGCGGG	-0.07
GGTATCACGTGTTAAT	0.12
TTTGCCACGTGTTAGC	0.11
GTTTTCACGTGATAGA	0.47
CGGAACACGTGTTAGG	0
TTTTTCACGTGAAAAA	0.2
TATTGCACGTGGGAGT	-0.21
TGTTTCACGTGAGTCA	0.38
AGCCGCACGTGGGGTA	-0.24
GGTGGCACGTGATTGC	0.21
GATTGCACGTGTGAGG	0.11
AGTGTCACGTGTACGT	-0.01
TTGTGCACGTGGGGTA	-0.27
AGGATCACGTGGTCTT	0.18
GTAGGCACGTGGGGCG	-0.17
TGTGGCACGTGATTAA	0.02
TATGACACGTGTTGAG	-0.01
GATTGCACGTGAAATG	0.21
ATTAACACGTGCAGGT	0.04
TTTGTCACGTGTGTCA	0.16
GGTTACACGTGCGAGT	0.08

Sequence	relative binding free energy [kcal/mol]
TCAGGCACGTGCAGTT	-0.06
ATATACACGTGATTGG	0.04
ACGGTCACGTGTGGTA	0.12
AAGATCACGTGGGGCG	0.11
CGCGGCACGTGGATGG	-0.02
TGTGGCACGTGAAACT	0.11
CATGGCACGTGGTTGC	-0.08
GGGCGCACGTGTGCTG	0.01
GTTTGCACGTGTCGCT	0.04
ATTTACACGTGTCTAG	0.09
GGTTTCACGTGGGCTT	0.28
CATGTCACGTGATTGG	0.17
GGGGTCACGTGGGAAA	0.17
TAGGGCACGTGGAGGC	-0.14
GGAAGCACGTGTGTTT	-0.14
GGAGTCACGTGAGGAG	0.24
CGTTCCACGTGGTTTT	0.1
AGAATCACGTGGTAAG	0.15
GTATGCACGTGAAGGT	0.21
ATTTGCACGTGTTCGT	-0.03
GTGAACACGTGGTGCA	0.12
AGGTTCACGTGATTAT	0.32
AGTATCACGTGGTCTA	0.09
GTGGGCACGTGTTATG	-0.01
TTCGTCACGTGGTTGG	0.11
GGGCTCACGTGGCGGA	0.09

Sequence	relative binding free energy [kcal/mol]
GGGTGCACGTGCTAGG	-0.01
CTTGTCACGTGAGGAG	0.19
GAGTACACGTGGTCGA	0.2
TTTGTCACGTGACTGA	0.17
TCTATCACGTGCTGGT	0.05
AAGGGCACGTGACGGT	-0.14
TGGAGCACGTGTGTCG	-0.05
GTATTCACGTGGGCAT	0.08
TAATCCACGTGTGTTA	0.05
TAGTGCACGTGTGGGC	0.08
CGAATCACGTGTAGGG	0.22
TTTTTCACGTGCAAGT	0.13
AGCTACACGTGGAGGG	0.03
TACGTCACGTGTTGGC	0.11
ATGCTCACGTGCTGGG	0.19
AGGAGCACGTGGGATT	-0.21
GTAGGCACGTGAAGAG	0.21
GGCGTCACGTGAAGTT	0.27
TTAATCACGTGCGCGG	0.08
GTCGTCACGTGTGGCT	0.12
TAGTCCACGTGTGTAG	0.11
GTCTGCACGTGATTTA	0.2
CGATGCACGTGTTCGT	0.03
TCGTTCACGTGCGTGG	0.13
ATGGCCACGTGGAATG	0.02
TGGTGCACGTGTTCTG	-0.07

Sequence	relative binding free energy [kcal/mol]
CCTGGCACGTGGGTTG	-0.24
AGATACACGTGTGTTA	-0.08
GGAAGCACGTGGTTTT	-0.02
CGCTTCACGTGTTTGG	0.24
ATTGACACGTGGATTG	0.09
AGGTCCACGTGTTTGT	0
AAAAGCACGTGGTATG	-0.15
GATGACACGTGGTGGC	-0.08
TGACTCACGTGGGGTT	0.11
AAGAGCACGTGTGGTT	-0.09
TTCGGCACGTGGCTGG	-0.07
ATTGACACGTGTATGT	-0.1
AGTTGCACGTGTAAGG	0.04
CCAGGCACGTGTATGG	0.03
CAGGTCACGTGGCGGA	0.07
TACGGCACGTGGGATG	-0.23
TTAATCACGTGTAAAG	0.17
TGAGGCACGTGGGCGT	-0.23
GTGAGCACGTGAGCTG	0.22
ATAGACACGTGTTTTT	0.09
AGATCCACGTGGTGAG	0.09
GGATGCACGTGTCGGT	0.09
